Data reported in the supplement of paper PMC8728848.
The other results are listed elsewhere or left out.

Columns and labels:
Experiment in all cases: glycan array binding signal (z-score within array); higher = stronger binding
Settings in all cases: glycan notation: IUPAC condensed, linker removed; mutation: W10H
Fuc(a1-2)Gal = target: Fuc(a1-2)Gal
In short: (§1)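 Glycan array data came from 3228 arrays in the Consortium for Functional Glycomics database, and only arrays with an available protein sequence were kept. Glycan names were put into IUPAC-condensed notation, and columns mapping to the same glycan were averaged. The binding signal is a within-array Z-score, averaged across arrays of one protein sequence run at different concentrations or buffers and across linkers. A negative Z-score can be read as non-binding.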

Fuc(a1-2)Gal(b1-3)GalNAc = target: Fuc(a1-2)Gal(b1-3)GalNAc
In short: as §1

[1] = target: Fuc(a1-2)Gal(b1-3)GalNAc(a1-3)[Fuc(a1-2)]Gal(b1-4)Glc
In short: as §1

[2] = target: Fuc(a1-2)Gal(b1-3)GalNAc(a1-3)[Fuc(a1-2)]Gal(b1-4)GlcNAc
In short: as §1

[3] = target: Fuc(a1-2)Gal(b1-3)GalNAc(b1-3)Gal
In short: as §1

[4] = target: Fuc(a1-2)Gal(b1-3)GalNAc(b1-3)Gal(a1-4)Gal(b1-4)Glc
In short: as §1

[5] = target: Fuc(a1-2)Gal(b1-3)GalNAc(b1-4)[Neu5Ac(a2-3)]Gal(b1-4)Glc
In short: as §1

Fuc(a1-2)Gal(b1-3)GlcNAc = target: Fuc(a1-2)Gal(b1-3)GlcNAc
In short: as §1

[6] = target: Fuc(a1-2)Gal(b1-3)GlcNAc(b1-2)Man(a1-3)[Fuc(a1-2)Gal(b1-3)GlcNAc(b1-2)Man(a1-6)]Man(b1-4)GlcNAc(b1-4)GlcNAc
In short: as §1

[7] = target: Fuc(a1-2)Gal(b1-3)GlcNAc(b1-2)Man(a1-3)[Fuc(a1-2)Gal(b1-3)GlcNAc(b1-2)Man(a1-6)]Man(b1-4)GlcNAc(b1-4)[Fuc(a1-6)]GlcNAc
In short: as §1

[8] = target: Fuc(a1-2)Gal(b1-3)GlcNAc(b1-3)Gal(b1-4)Glc
In short: as §1

[9] = target: Fuc(a1-2)Gal(b1-3)GlcNAc(b1-3)GalNAc
In short: as §1

[10] = target: Fuc(a1-2)Gal(b1-3)GlcNAc(b1-3)[Fuc(a1-2)Gal(b1-3)GlcNAc(b1-6)]GalNAc
In short: as §1

[11] = target: Fuc(a1-2)Gal(b1-3)GlcNAc(b1-3)[Gal(b1-4)GlcNAc(b1-6)]Gal(b1-4)Glc
In short: as §1

[12] = target: Fuc(a1-2)Gal(b1-3)GlcNAc(b1-3)[Neu5Ac(a2-6)Gal(b1-4)GlcNAc(b1-6)]Gal(b1-4)Glc
In short: as §1

[13] = target: Fuc(a1-2)Gal(b1-3)GlcNAc6S
In short: as §1

[14] = target: Fuc(a1-2)Gal(b1-3)[Fuc(a1-4)]GlcNAc
In short: as §1

[15] = target: Fuc(a1-2)Gal(b1-3)[Fuc(a1-4)]GlcNAc(b1-2)Man(a1-3)[Fuc(a1-2)Gal(b1-3)[Fuc(a1-4)]GlcNAc(b1-2)Man(a1-3)]Man(b1-4)GlcNAc(b1-4)GlcNAc
In short: as §1

[16] = target: Fuc(a1-2)Gal(b1-3)[Fuc(a1-4)]GlcNAc(b1-2)Man(a1-3)[Fuc(a1-2)Gal(b1-3)[Fuc(a1-4)]GlcNAc(b1-2)Man(a1-6)]Man(b1-4)GlcNAc(b1-4)[Fuc(a1-6)]GlcNAc(b1-4)[Fuc(a1-6)]GlcNAc
In short: as §1

[17] = target: Fuc(a1-2)Gal(b1-3)[Fuc(a1-4)]GlcNAc(b1-3)[Fuc(a1-3)[Gal(b1-4)]GlcNAc(b1-6)]Gal(b1-4)Glc
In short: as §1

[18] = target: Fuc(a1-2)Gal(b1-3)[Fuc(a1-4)]GlcNAc(b1-3)[Gal(b1-4)GlcNAc(b1-6)]Gal(b1-4)Glc
In short: as §1

[19] = target: Fuc(a1-2)Gal(b1-4)Fuc(a1-3)]GlcNAc(b1-2)Man(a1-3)[Fuc(a1-2)Gal(b1-4)[Fuc(a1-3)]GlcNAc(b1-2)Man(a1-6)]Man(b1-4)GlcNAc(b1-4)GlcNAc
In short: as §1

Fuc(a1-2)Gal(b1-4)Glc = target: Fuc(a1-2)Gal(b1-4)Glc
In short: as §1

Fuc(a1-2)Gal(b1-4)Glc6S = target: Fuc(a1-2)Gal(b1-4)Glc6S
In short: as §1

Fuc(a1-2)Gal(b1-4)GlcNAc = target: Fuc(a1-2)Gal(b1-4)GlcNAc
In short: as §1

[20] = target: Fuc(a1-2)Gal(b1-4)GlcNAc(b1-2)Man
In short: as §1

[21] = target: Fuc(a1-2)Gal(b1-4)GlcNAc(b1-2)Man(a1-3)[Fuc(a1-2)Gal(b1-4)GlcNAc(b1-2)Man(a1-6)]Man(b1-4)GlcNAc(b1-4)GlcNAc
In short: as §1

[22] = target: Fuc(a1-2)Gal(b1-4)GlcNAc(b1-2)Man(a1-3)[Fuc(a1-2)Gal(b1-4)GlcNAc(b1-2)Man(a1-6)]Man(b1-4)GlcNAc(b1-4)[Fuc(a1-6)]GlcNAc
In short: as §1

[23] = target: Fuc(a1-2)Gal(b1-4)GlcNAc(b1-2)[Fuc(a1-2)Gal(b1-4)GlcNAc(b1-4)]Man(a1-3)[Fuc(a1-2)Gal(b1-4)GlcNAc(b1-2)Man(a1-6)]Man(b1-4)GlcNAc(b1-4)GlcNAc
In short: as §1

[24] = target: Fuc(a1-2)Gal(b1-4)GlcNAc(b1-3)Gal(b1-4)GlcNAc
In short: as §1

[25] = target: Fuc(a1-2)Gal(b1-4)GlcNAc(b1-3)Gal(b1-4)GlcNAc(b1-2)Man(a1-3)[Fuc(a1-2)Gal(b1-4)GlcNAc(b1-3)Gal(b1-4)GlcNAc(b1-2)Man(a1-6)]Man(b1-4)GlcNAc(b1-4)GlcNAc
In short: as §1

[26] = target: Fuc(a1-2)Gal(b1-4)GlcNAc(b1-3)Gal(b1-4)GlcNAc(b1-3)Gal(b1-4)GlcNAc
In short: as §1

[27] = target: Fuc(a1-2)Gal(b1-4)GlcNAc(b1-3)GalNAc
In short: as §1

[28] = target: Fuc(a1-2)Gal(b1-4)GlcNAc(b1-3)[Fuc(a1-2)Gal(b1-4)GlcNAc(b1-6)]GalNAc
In short: as §1

[29] = target: Fuc(a1-2)Gal(b1-4)GlcNAc(b1-3)[Fuc(a1-3)[Gal(b1-4)]GlcNAc(b1-6)]Gal(b1-4)Glc
In short: as §1

[30] = target: Fuc(a1-2)Gal(b1-4)GlcNAc(b1-6)GalNAc
In short: as §1

[31] = target: Fuc(a1-2)Gal(b1-4)GlcNAc6S
In short: as §1

[32] = target: Fuc(a1-2)Gal(b1-4)[Fuc(a1-3)]GlcNAc
In short: as §1

[33] = target: Fuc(a1-2)Gal(b1-4)[Fuc(a1-3)]GlcNAc(b1-2)Man(a1-3)[Fuc(a1-2)Gal(b1-4)[Fuc(a1-3)]GlcNAc(b1-2)Man(a1-6)]Man(b1-4)GlcNAc(b1-4)[Fuc(a1-6)]GlcNAc
In short: as §1

[34] = target: Fuc(a1-2)Gal(b1-4)[Fuc(a1-3)]GlcNAc(b1-2)[Fuc(a1-2)Gal(b1-4)[Fuc(a1-3)]GlcNAc(b1-4)]Man(a1-3)[Fuc(a1-2)Gal(b1-4)[Fuc(a1-3)]GlcNAc(b1-2)Man(a1-6)]Man(b1-4)GlcNAc(b1-4)GlcNAc
In short: as §1

[35] = target: Fuc(a1-2)Gal(b1-4)[Fuc(a1-3)]GlcNAc(b1-3)Gal(b1-4)[Fuc(a1-3)]GlcNAc
In short: as §1

[36] = target: Fuc(a1-2)Gal(b1-4)[Fuc(a1-3)]GlcNAc(b1-3)Gal(b1-4)[Fuc(a1-3)]GlcNAc(b1-3)Gal(b1-4)[Fuc(a1-3)]GlcNAc
In short: as §1

[37] = target: Fuc(a1-2)Gal(b1-4)[Fuc(a1-3)]GlcNAc(b1-3)GalNAc
In short: as §1

[38] = target: Fuc(a1-2)Gal(b1-4)[Fuc(a1-3)]GlcNAc(b1-3)[Neu5Ac(a2-6)Gal(b1-4)GlcNAc(b1-6)]Gal(b1-4)Glc
In short: as §1

[39] = target: Fuc(a1-2)Gal3S(b1-4)GlcNAc
In short: as §1

B1: Banana lectin (Musa acuminata) (protein)
chain: MNGAIKVGAHGGNGGSAFDMGPAYRIISVKIFSGDVVDGVDVTFTYYGKTETRHYGGSGGTPHEIVLQEGEYLVGMAGEVANYHGAVVLGKLGFSTNKKAYGPFGNTGGTPFSLPIAAGKISGFFGRGGKFLDAIGVYLEPLEHHHHHH
Fuc(a1-2)Gal
  glycan array binding signal (z-score): -0.166
Fuc(a1-2)Gal(b1-3)GalNAc
  glycan array binding signal (z-score): -0.184
[1]
  glycan array binding signal (z-score): -0.171
[2]
  glycan array binding signal (z-score): -0.179
[3]
  glycan array binding signal (z-score): -0.142
[4]
  glycan array binding signal (z-score): -0.164
[5]
  glycan array binding signal (z-score): -0.17
Fuc(a1-2)Gal(b1-3)GlcNAc
  glycan array binding signal (z-score): -0.138
[6]
  glycan array binding signal (z-score): 0.104
[7]
  glycan array binding signal (z-score): -0.086
[8]
  glycan array binding signal (z-score): -0.172
[9]
  glycan array binding signal (z-score): -0.181
[10]
  glycan array binding signal (z-score): -0.199
[11]
  glycan array binding signal (z-score): -0.184
[12]
  glycan array binding signal (z-score): -0.165
[13]
  glycan array binding signal (z-score): -0.135
[14]
  glycan array binding signal (z-score): -0.188
[15]
  glycan array binding signal (z-score): -0.155
[16]
  glycan array binding signal (z-score): -0.096
[17]
  glycan array binding signal (z-score): -0.176
[18]
  glycan array binding signal (z-score): -0.177
[19]
  glycan array binding signal (z-score): -0.064
Fuc(a1-2)Gal(b1-4)Glc
  glycan array binding signal (z-score): -0.185
Fuc(a1-2)Gal(b1-4)Glc6S
  glycan array binding signal (z-score): -0.192
Fuc(a1-2)Gal(b1-4)GlcNAc
  glycan array binding signal (z-score): -0.172
[20]
  glycan array binding signal (z-score): -0.167
[21]
  glycan array binding signal (z-score): 0.05
[22]
  glycan array binding signal (z-score): -0.003
[23]
  glycan array binding signal (z-score): -0.097
[24]
  glycan array binding signal (z-score): -0.151
[25]
  glycan array binding signal (z-score): -0.14
[26]
  glycan array binding signal (z-score): -0.131
[27]
  glycan array binding signal (z-score): -0.182
[28]
  glycan array binding signal (z-score): -0.164
[29]
  glycan array binding signal (z-score): -0.128
[30]
  glycan array binding signal (z-score): -0.158
[31]
  glycan array binding signal (z-score): -0.179
[32]
  glycan array binding signal (z-score): -0.179
[33]
  glycan array binding signal (z-score): -0.129
[34]
  glycan array binding signal (z-score): -0.112
[35]
  glycan array binding signal (z-score): -0.129
[36]
  glycan array binding signal (z-score): -0.169
[37]
  glycan array binding signal (z-score): -0.188
[38]
  glycan array binding signal (z-score): -0.189
[39]
  glycan array binding signal (z-score): -0.187
